The target in test [1] is T1, recombinant cynomolgus monkey CD19 (cynomolgus monkey, UniProt A0A2K5W8L9 20-292).
T1 sequence: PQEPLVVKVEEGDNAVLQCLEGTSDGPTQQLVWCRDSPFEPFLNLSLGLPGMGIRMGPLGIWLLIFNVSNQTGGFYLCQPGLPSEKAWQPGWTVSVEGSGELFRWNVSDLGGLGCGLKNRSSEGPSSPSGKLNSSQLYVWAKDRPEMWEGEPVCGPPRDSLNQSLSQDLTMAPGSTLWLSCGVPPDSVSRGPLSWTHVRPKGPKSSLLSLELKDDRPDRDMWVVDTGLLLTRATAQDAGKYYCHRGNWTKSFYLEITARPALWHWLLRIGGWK

In test [2] the target is T2, recombinant human CD19 (human, UniProt P15391 20-291).
T2 sequence (looked up): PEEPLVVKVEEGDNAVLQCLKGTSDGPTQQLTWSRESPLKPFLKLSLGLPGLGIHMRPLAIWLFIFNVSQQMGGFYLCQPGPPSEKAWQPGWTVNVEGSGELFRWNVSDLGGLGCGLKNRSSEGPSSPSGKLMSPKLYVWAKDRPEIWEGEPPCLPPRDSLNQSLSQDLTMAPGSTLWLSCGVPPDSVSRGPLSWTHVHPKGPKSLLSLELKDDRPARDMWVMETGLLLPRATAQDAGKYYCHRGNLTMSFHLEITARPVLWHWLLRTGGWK

Test [3] deals with T3, cynomolgus monkey CD19 on cells (cynomolgus monkey, UniProt A0A2K5W8L9 20-557).
T3 sequence: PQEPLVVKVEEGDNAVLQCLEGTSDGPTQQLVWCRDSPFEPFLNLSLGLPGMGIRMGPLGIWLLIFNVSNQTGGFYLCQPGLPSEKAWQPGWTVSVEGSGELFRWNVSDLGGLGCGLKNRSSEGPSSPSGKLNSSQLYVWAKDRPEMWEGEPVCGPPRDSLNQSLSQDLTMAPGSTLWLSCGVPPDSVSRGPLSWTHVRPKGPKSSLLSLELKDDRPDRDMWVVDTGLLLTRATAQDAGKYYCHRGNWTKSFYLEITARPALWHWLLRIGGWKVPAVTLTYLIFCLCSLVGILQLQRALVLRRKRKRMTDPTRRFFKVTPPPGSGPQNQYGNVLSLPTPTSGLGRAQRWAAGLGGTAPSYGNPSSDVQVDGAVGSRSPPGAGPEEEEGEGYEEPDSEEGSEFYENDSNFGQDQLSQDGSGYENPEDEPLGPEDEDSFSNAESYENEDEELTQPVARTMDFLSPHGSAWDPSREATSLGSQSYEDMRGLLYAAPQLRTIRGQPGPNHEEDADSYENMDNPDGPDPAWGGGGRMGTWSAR

Test [4] deals with T4, human CD19 on cells (human, UniProt P15391 20-556).
T4 sequence (looked up): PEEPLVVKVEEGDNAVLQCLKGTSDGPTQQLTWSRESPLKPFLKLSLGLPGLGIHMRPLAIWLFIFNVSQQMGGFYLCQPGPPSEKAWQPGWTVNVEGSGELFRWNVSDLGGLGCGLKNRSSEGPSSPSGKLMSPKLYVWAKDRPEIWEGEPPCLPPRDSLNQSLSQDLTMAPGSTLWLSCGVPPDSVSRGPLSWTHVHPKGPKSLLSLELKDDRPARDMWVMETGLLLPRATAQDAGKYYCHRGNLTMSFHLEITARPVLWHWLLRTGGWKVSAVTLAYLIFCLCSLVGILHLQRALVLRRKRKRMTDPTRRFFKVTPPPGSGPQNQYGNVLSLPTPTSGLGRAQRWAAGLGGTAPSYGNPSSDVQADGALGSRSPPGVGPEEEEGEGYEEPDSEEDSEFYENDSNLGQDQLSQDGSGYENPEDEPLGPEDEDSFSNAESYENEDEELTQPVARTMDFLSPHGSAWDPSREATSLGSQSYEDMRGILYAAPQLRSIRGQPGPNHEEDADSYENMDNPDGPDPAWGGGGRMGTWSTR

B1: FMC59 (huFMC63) (antibody, human IgG1, kappa)
heavy: QVQLVQSGGGVVQPGRSLRLSCAASGVSLPDYGVSWVRQAPGKGLEWVAVIWGSETTYYNSALKSRFTISRDNSKNTLYLQMSSLRAEDTAVYYCAKHYYYGGSFAMDYWGQGTLVTVSS[in this place human IgG1 constant region]
light: DIQMTQSPSSLSASVGDRVTITCRASQDISKYLNWYQQKPGKAIKLLIYHTSRLHSGVPSRFSGSGSGTDFTLTISSLQPEDFATYYCQQGATLPYTFGPGTKLEIKRTVAAPSVFIFPPSDEQLKSGTASVVCLLNNFYPREAKVQWKVDNALQSGNSQESVTEQDSKDSTYSLSSTLTLSKADYEKHKVYACEVTHQGLSSPVTKSFNRGEC
As for B1, the Kd was found to be 470 nM in test [1] and 2.7 nM in test [2].

B2: FMC59-S239D/I332E (huFMC63-S239D/I332E) (antibody, human IgG1, kappa)
heavy: QVQLVQSGGGVVQPGRSLRLSCAASGVSLPDYGVSWVRQAPGKGLEWVAVIWGSETTYYNSALKSRFTISRDNSKNTLYLQMSSLRAEDTAVYYCAKHYYYGGSFAMDYWGQGTLVTVSS[in this place human IgG1 constant region with changes]
light: DIQMTQSPSSLSASVGDRVTITCRASQDISKYLNWYQQKPGKAIKLLIYHTSRLHSGVPSRFSGSGSGTDFTLTISSLQPEDFATYYCQQGATLPYTFGPGTKLEIKRTVAAPSVFIFPPSDEQLKSGTASVVCLLNNFYPREAKVQWKVDNALQSGNSQESVTEQDSKDSTYSLSSTLTLSKADYEKHKVYACEVTHQGLSSPVTKSFNRGEC
For B2, the concentration for a half-maximal effect (EC50) stood at 37 nM in test [3] and 1.1 nM in test [4].

The Kd is a measure of binding affinity in units of concentration. Usually EC50 stands for the concentration needed to bring the measured effect to its halfway point.
